# ChEMBL document CHEMBL4888484, “Replenishing the malaria drug discovery pipeline: Screening and hit evaluation of the MMV Hit Generation Library 1 (HGL1) against asexual blood stage Plasmodium falciparum ,using a nano luciferase reporter read-out” (2022)
# The campaign covered roughly 150,000 compounds. About 540 (0.36%) showed an effect of 50% or more. Some of the results follow.
# Test system: Plasmodium falciparum
# Assay: Primary screen in NF54 nanoGlo assay, in single point, at 2uM, 72h; a lower Z score goes with more inhibition
# Format: functional, Erythrocyte
# Conditions: timepoint 72 hour
Compound,% Inhibition,Z score
O=C1NCCN(C(=O)c2ccc(F)cc2F)[C@H]1Cc1ccccc1,-2%,0.32
CN1CC(=O)Nc2cc(C(=O)NCc3cccc4c3OCC4)cnc21,-5%,0.65
Cc1cc(C)nc(O[C@H]2CC[C@H](NC(=O)c3sc(C)nc3C)CC2)n1,-3%,0.3
Cc1cc(CN[C@H]2CCC3(C2)CN(C(=O)OC(C)(C)C)C3)ccn1,0%,-0.03
COc1ccc(Br)cc1Cn1nnc(C(=O)NCc2ccc3c(c2)OCO3)c1N,-13%,2.53
CCC(CNC1CCCS(=O)(=O)C1)c1ccc(Cl)cc1 (stereo not drawn),-1%,0.12
COc1ccc2cc(-c3n[nH]cc3CN(C)C[C@H]3CCCN3C)ccc2c1,-5%,0.77
CCc1ccc(NC(=O)Cn2c(=O)c(-c3noc(C)n3)c3n(c2=O)CCCC3)cc1,-9%,1.18
Cc1ccc(C(=O)C(=O)Nc2cccnc2-n2cccn2)cc1,-5%,0.63
CCOC(=O)Cc1c(C)nc2ncnn2c1N1CCC(c2ccccc2)CC1,-10%,1.37
O=C(NC(c1ccccc1)c1cccc(Cl)c1)NC(c1ccccc1)c1cccc(Cl)c1 (stereo not drawn),-15%,1.8
O=C1C[C@@H]2CCN(CCCc3ccccc3)C[C@@H]2CCOc2ccccc2N1,0%,-0.04
Cc1c(Cl)cccc1NC(=O)c1nc(N2CCCC2)c2c(C)c(C)n(-c3ccccc3)c2n1,0%,0.07
CC(C)c1cc(CN(C)Cc2cccc3nonc23)on1,-6%,1.07
O=C([C@H](O)C1CCCCC1)N1CCN(c2nc[nH]n2)CC1,-3%,0.57
Cc1cnc(CN2CC3(CCC2=O)CCN(Cc2ccc(F)cc2)CC3)cn1,-1%,0.1
CCOC(=O)c1cccnc1-c1cccc(C(=O)N2CCC3(CCO3)CC2)c1,-11%,2.13
COC(=O)C1CCCCC1NC(=O)c1[nH]nc(C2CC2)c1Cl (stereo not drawn),-9%,1.17
Cc1ccc(C2=Nc3ccccc3N=C(c3ccc4ccccc4c3O)C2)cc1,8%,-1.59
CC(C)(C)OC(=O)NC(CO)C(O)c1cccnc1 (stereo not drawn),2%,-0.31
COc1cccc([C@H]2CC(=O)Nc3nc(N)sc32)c1OCc1cccc(Cl)c1,-5%,1.04

Compound,% Inhibition,Z score
Cc1ccc(S(=O)(=O)N2CCCN(C(=O)CN3CCCCC3)[C@@H]2C(C)C)cc1,-11%,1.7
Cc1cc(Br)cnc1N(C)Cc1ncnn1C,0%,0.03
COc1ccccc1-c1n[nH]c2c1CN(C(=O)c1cnc3ccccn13)CC2,-13%,1.32
Cc1noc([C@H](C)OC(=O)c2c[nH]nc2C(C)(C)C)n1,2%,-0.39
C=CCn1cc(CNCCOCC)c(C)n1,5%,-0.68
Cc1nnc(-c2cc(C(C)C)n(-c3cccc(C(=O)NCc4ccncc4)c3)n2)o1,7%,-0.61
Cc1nc(CCNc2ncccn2)sc1Cl,5%,-0.75
O=c1ccc(-c2ccc(S(=O)(=O)Nc3ccc(OC(F)(F)F)cc3)o2)n[nH]1,-13%,1.27
CC1=C(C(=O)NCc2cccc(COCC(F)(F)F)c2)CCCO1,-2%,0.21
COC(CNC(=O)C1CCN(C)C(=O)C1)c1ccccc1 (stereo not drawn),-16%,2.26
Cc1c(Cl)cncc1NC(=O)N1CCC12CCOCC2,-7%,1.13
COC(=O)c1ccc(N(C)Cc2cc(F)c(F)c(F)c2)nn1,-1%,0.16
Cc1noc(C)c1[C@@H]1CCCN1C(=O)Cc1ccc2c(c1)NC(=O)CO2,7%,-1.12
COC(=O)CN1CCN(CCC2CCCC2)CC1,19%,-2.79
Cc1nnc(NC(=O)Cn2cccn2)s1,-7%,0.87
COc1ccc(NC(=O)Cn2nc(N3CCOCC3)c3ccccc3c2=O)cc1,-13%,2.34
COCCn1c(=O)c(CNC[C@H](O)CO)cc2cc3c(cc21)CCC3,7%,-0.8
COCCc1noc(CNc2nc3c(s2)c(C)nn3C)n1,-2%,0.38
C[C@@H]1OCc2c1nc(N)c(C#N)c2-c1ccnn1-c1ccccc1,-27%,2.5
CCCCc1noc(C(C)N2CCC(N3CCCC3)C2)n1 (stereo not drawn),-4%,0.61
Cc1cccc(-c2ccc(N3CCC(C(=O)Nc4ccc(Oc5ccccc5)cc4)CC3)nn2)c1,-9%,1.14

Compound,% Inhibition,Z score
Cc1nnc([C@@H]2Cc3ccccc3CN2)o1,-8%,1.15
CN(C)c1nc([C@H]2C[C@@H](NC(=O)N3CCOCC3)C2)cc(=O)[nH]1,11%,-1.46
CCC1CN(CCn2cccn2)CCN1CC(O)c1ccccc1 (stereo not drawn),-3%,0.35
CCc1cc(N2CCC(O)(Cn3ccnn3)CC2)nc(CC)n1,-2%,0.3
CC(C)CCC(=O)NCc1csc(N(C)C(=O)CCC(C)C)n1,6%,-0.73
C[C@@H](C(=O)NCCC1=CCCCC1)N(C)Cc1cccc(F)c1,-1%,0.19
c1ccc(COCCN2CCO[C@H](C3CC3)C2)cc1,-13%,1.24
O=C(NC1CCC(O)CC1)N1CCC[C@H]1c1cccs1 (stereo partly drawn),-8%,1.1
O=C(NCc1cccc(C(F)(F)F)c1)c1ccc(CN2CCn3cccc3[C@H]2c2ccccc2F)o1,14%,-1.91
CN(C)c1noc(COc2ccc3c(c2)CCC3)n1,-15%,1.65
O=C(Cn1cc(C(=O)c2ccncc2)c(=O)c2cc(Br)ccc21)Nc1ccc(F)cc1F,-5%,0.89
CCN(C(=O)c1sc(NC(=O)Cc2ccccc2)c(C#N)c1C)C1CCCCC1,34%,-3.81
Cc1cc(-c2nc(C(=O)N(CC(F)F)CC3CCC3)co2)ccn1,1%,-0.16
N#C[C@@H](C(=O)c1ccco1)c1nc2cc(F)ccc2s1,-3%,0.51
Cc1cc(C)c(C(=O)O)cc1NC(=O)C1(S(C)(=O)=O)CCC1,7%,-0.61
CC(C)c1ccc(C(=O)N2CCCC[C@@H]2CCc2ccc(O)cc2)c(=O)[nH]1,-9%,1.02
COC(=O)c1cn(CCc2cn3ccccc3n2)cc2c(O)nnc1-2,-7%,0.84
CCN(CC)C(=O)[C@@H]1C[C@H](NC(=O)c2ccncc2)CN1C1CCOCC1,7%,-1.25
CN(C)C(=NCCc1cccs1)N(C)C,-2%,0.29
CC[C@H](NC(=O)N1CCNC(=O)C1)c1ccccc1Br,-10%,1.56
Cn1cc(CCS(=O)(=O)c2cccc(O)c2)cn1,-5%,0.84

Compound,% Inhibition,Z score
O=C(Nc1ccc(Cl)cc1-c1ccccc1)N1CC(O)C(O)C1 (stereo not drawn),0%,-0.01
CC(=O)N[C@H]1CCN(C2CCN(c3cccc(-c4ccco4)c3)CC2)C1,-8%,0.99
COc1ccc2c(c1)OCC[C@@H]2NC(=O)N(CC1CC1)CC1CC1,-5%,0.59
C[C@H](O)CN(C)c1c(Cl)cccc1C#N,2%,-0.29
CCCOc1cc(Cl)c(CN2C[C@@H]3[C@H](C2)[C@H]3C(=O)O)cc1OCC,-2%,0.31
O=C(NCc1ccc([C@@H](O)c2cccs2)s1)c1ccc(F)cc1,6%,-0.94
CCN1CC2(CCN(Cc3ccccc3F)CC2)C[C@@H](c2ccccc2)C1=O,-8%,1.31
CC1=C(C(=O)N[C@H]2CCC[C@H]2Cc2ccc(F)cc2)OCCO1,-8%,1.62
C[C@@H](CN(C)c1cc(C(F)(F)F)ccn1)N1CCOCC1,-2%,0.41
CCN(C(=O)CN1C(=O)N[C@@](C)(c2ccc(C)o2)C1=O)c1ccccc1,-42%,4.9
O=C(NC[C@](O)(c1ccsc1)c1cccs1)NC1CCCC1,-3%,0.46
CC(=O)N[C@H]1[C@H](OC2CCCCC2)O[C@H](COC(C)=O)[C@@H](OC(C)=O)[C@@H]1OC(C)=O,-3%,0.32
O=c1n(CC2CC2)nc2n1CCN(S(=O)(=O)c1ccccc1C(F)(F)F)C2,-20%,3.4
CCc1ccccc1CN(CC#N)S(=O)(=O)N(C)C,-7%,1.14
Cn1cc(-c2ccc(CNS(=O)(=O)Cc3ccccc3)cn2)cn1,7%,-0.91
Cc1cnnn1-c1ccc(NC(=O)[C@H]2CC(=O)N(c3ccccc3)C2)cc1,-4%,0.42
O=C(Cn1cccn1)N1CC[C@]23C(=O)N(Cc4cn(nn4)CCCOc4cccc(c4)[C@H]12)c1ccccc13,-10%,1.86
CC(C)N(CCNc1nccc(-c2ccccn2)n1)C(C)C,-2%,0.5
CC1(CC(=O)N2CC3(C2)CC(F)(F)C3)CC1,1%,-0.15
CCOc1ccc(N2C(=O)CN(S(=O)(=O)c3ccccc3)C[C@@]2(C)C(=O)NC2CCCC2)cc1,-5%,0.66
COc1ccc(S(=O)(=O)N[C@H]2COC[C@@H]2OC)cc1Cl,-2%,0.23
